Measured values from the supplement of paper PMC5919970.
Structures can show the parent of a compound that is named as a salt. The full ranking holds about 2,000 compounds; the median of “fractional viability relative to vehicle” is about 0.92, and the lowest 2% start at about 0.11. The list shows a part of the results.

System: TYKNU
Experiment: fractional viability relative to vehicle; TYKNU is a high-grade serous ovarian cancer line; higher = less growth inhibition
Details: 72 h, genotype: OPA1 knockout (sgOPA1 #2)
Procedure, shortened: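 Drug treatment lasted 72 h, with cells grown at 37 °C in 5% CO2 in RPMI 1640 supplemented with 10% FBS. Beforehand, TYKNU control cells or their lentiCRISPRv2 knockout derivatives had been seeded at 500 cells per well into drug-stamped 384-well plates carrying a ~2100-compound library at 2 or 10 μM, in duplicate. Viability came from Cell Titer Glo luminescence, with averaged duplicate treatment wells normalised to duplicate control wells in the same plate position.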

Structure (SMILES) | fractional viability (2uM) | fractional viability (10uM)
O=C(O)Cc1cccc(OCCCN(Cc2cccc(C(F)(F)F)c2Cl)CC(c2ccccc2)c2ccccc2)c1 | 0.952 | 0.951
NC(=O)OCC(COC(N)=O)c1ccccc1 [Felbamate] | 1.06 | 0.93
CCC[S+]([O-])c1ccc2[nH]c(NC(=O)OC)nc2c1 (configuration not stated) [Albendazole Oxide] | 1.1 | 0.64
Cc1ccnc(NS(=O)(=O)c2ccc(N)cc2)n1 [Sulfamerazine] | 1.07 | 0.897
CNC[C@H](O)[C@@H](O)[C@H](O)[C@H](O)CO [Meglumine] | 1.2 | 1.07
COC(=O)N[C@H](C(=O)N[C@@H](Cc1ccccc1)[C@@H](O)CN(Cc1ccc(-c2ccccn2)cc1)NC(=O)[C@@H](NC(=O)OC)C(C)(C)C)C(C)(C)C [Atazanavir Sulfate] | 1.14 | 0.875
COC(=O)Nc1ccc(-c2nc(N3CCOCC3)c3cnn(C4CCN(C(=O)OC)CC4)c3n2)cc1 | 0.709 | 0.421
CCCCNc1cc(C(=O)O)cc(S(N)(=O)=O)c1Oc1ccccc1 [Bumetanide] | 1.1 | 0.973
C[C@H](Cn1cnc2c(N)ncnc21)OCP(=O)(O)O [Tenofovir] | 1.87 | 1.52
CC(C)n1c(/C=C/C(O)CC(O)CC(=O)O)c(-c2ccc(F)cc2)c2ccccc21 (configuration not stated) [Fluvastatin Sodium] | 0.763 | 0.639
O=c1ccn([C@@H]2O[C@H](CO)[C@@H](O)[C@H]2O)c(=O)[nH]1 [Uridine] | 0.946 | 1.18
CC1(C)S[C@@H]2[C@H](NC(=O)C(C(=O)O)c3ccccc3)C(=O)N2[C@H]1C(=O)O (some centres not stated) [Carbenicillin disodium] | 0.77 | 0.874
CC(C)(C)C(=O)C(Oc1ccc(Cl)cc1)n1ccnc1 (configuration not stated) [Climbazole] | 0.924 | 0.823
CC(C)N(CCCNC(=O)Nc1ccc(C(C)(C)C)cc1)C[C@H]1O[C@@H](n2cc(Br)c3c(N)ncnc32)[C@H](O)[C@@H]1O | 1.04 | 1.06
Cc1cc(NS(=O)(=O)c2ccc(N)cc2)no1 [Sulfamethoxazole] | 1.27 | 1.17
Nc1[nH]nc2nnc(-c3c(-c4ccccc4)nn4ccccc34)cc12 | 0.889 | 1.07
CCOC(=O)n1ccn(C)c1=S [Carbimazole] | 0.96 | 0.912
COc1cc(N2CCC(N)CC2)ccc1Nc1ncc(Cl)c(-c2c[nH]c3ccccc23)n1 | 0.672 | 0.177
CC1(C)O[C@@H]2C[C@H]3[C@@H]4CCC5=CC(=O)C=C[C@]5(C)[C@H]4[C@@H](O)C[C@]3(C)[C@]2(C(=O)CO)O1 [Desonide] | 0.977 | 1.08
O=C(O)c1ccc2c(c1)nc(Nc1cccc(Cl)c1)c1ccncc12 [CX-4945 (Silmitasertib)] | 0.773 | 0.585
NCCCCCNCC12CC3CC(CC(C3)C1)C2 [IEM 1754 dihydrobroMide] | 0.848 | 0.99
O=C(/C=C/c1ccc(O)c(O)c1)c1ccc(O)cc1O [Butein] | 0.74 | 0.559

Structure (SMILES) | fractional viability (2uM) | fractional viability (10uM)
CC[C@H]1OC(=O)C[C@@H](O)[C@H](C)[C@@H](O[C@@H]2O[C@H](C)[C@@H](O[C@H]3C[C@@](C)(O)[C@@H](O)[C@H](C)O3)[C@H](N(C)C)[C@H]2O)[C@@H](CC=O)C[C@@H](C)C(=O)/C=C/C(C)=C/[C@@H]1CO[C@@H]1O[C@H](C)[C@@H](O)[C@@H](OC)[C@H]1OC [Tylosin tartrate] | 1.7 | 1.55
O=C(CCCCCCC(=O)Nc1ccccc1)NO [Vorinostat (SAHA, MK0683)] | 0.589 | 0.233
COC(=O)C1=C(C)NC(C)=C(C(=O)OC2CCCN(Cc3ccccc3)C2)C1c1cccc([N+](=O)[O-])c1 (configuration not stated) [Benidipine HCl] | 1.03 | 0.739
CCNC(=O)CCC/C=C\C[C@@H]1[C@@H](/C=C/[C@@H](O)CCc2ccccc2)[C@H](O)C[C@@H]1O [Bimatoprost] | 0.972 | 1.1
COc1ccc(S(=O)(=O)Nc2cccnc2Nc2ccc(O)cc2)cc1 | 0.791 | 0.436
Cc1ccc(NC(=O)c2cccc(N(C)C)c2)cc1NC(=O)c1ccc(O)cc1 | 1.14 | 1.09
O=C1NCCc2[nH]c(-c3ccncc3)cc21 | 0.962 | 0.746
O=c1cc(-c2ccccc2)oc2cc(O)cc(O)c12 [Chrysin] | 1.32 | 1.12
Cc1cc(OCCCS(C)(=O)=O)cc(C)c1-c1cccc(COc2ccc3c(c2)OC[C@H]3CC(=O)O)c1 | 1.21 | 0.85
CCN(CC)C(=S)SSC(=S)N(CC)CC [Disulfiram] | 0.302 | 0.205
C=C[C@@]1(C)CC(=O)[C@]2(O)[C@@]3(C)[C@@H](O)CCC(C)(C)[C@@H]3[C@H](O)[C@H](OC(C)=O)[C@@]2(C)O1 [Forskolin] | 1.08 | 0.84
O=C(CCCCCN1C(=O)c2cccc3cccc(c23)C1=O)NO [Scriptaid] | 0.538 | 0.229
COc1cc2/c(=N/c3ccc(Br)cc3F)nc[nH]c2cc1OCC1CCN(C)CC1 [Vandetanib (ZD6474)] | 1.31 | 0.638
CCOC(=O)C1=C(C)NC(C)=C(C(=O)OCC)C1c1ccccc1/C=C/C(=O)OC(C)(C)C [Lacidipine] | 1.04 | 0.853
O=C(O)C(Cc1c[nH]c2ccccc12)N1C(=O)c2ccccc2C1=O (configuration not stated) | 0.905 | 0.771
CCOc1cc(CC(=O)N[C@@H](CC(C)C)c2ccccc2N2CCCCC2)ccc1C(=O)O [Repaglinide] | 0.909 | 0.926
C#C[C@]1(O)CC[C@H]2[C@@H]3CCc4cc(O)ccc4[C@H]3CC[C@@]21C [Ethinyl Estradiol] | 1.11 | 0.692
COc1cc(F)c(F)c(Nc2ccc(I)cc2F)c1NS(=O)(=O)C1(C[C@H](O)CO)CC1 [Refametinib (RDEA119, Bay 86-9766)] | 0.528 | 0.41
O=C(O)c1ccc(N2C(=O)/C(=C\c3ccc(-c4ccc([N+](=O)[O-])cc4)o3)C=C2c2ccccc2)cc1 | 0.866 | 0.869
O=S(=O)(c1ccccc1)N(CC(F)(F)F)c1ccc(C(O)(C(F)(F)F)C(F)(F)F)cc1 | 0.894 | 0.827
CC#CC(=O)Nc1ccc2ncnc(Nc3cccc(Br)c3)c2c1 | 0.562 | 0.317
Nc1nc2c(ncn2COCCO)c(=O)[nH]1 [Aciclovir] | 1.09 | 1.27

Structure (SMILES) | fractional viability (2uM) | fractional viability (10uM)
COc1ccc2[nH]c([S@@+]([O-])Cc3ncc(C)c(OC)c3C)nc2c1 [Esomeprazole Sodium] | 1.35 | 1.58
COc1ccc2[nH]c([S@@+]([O-])Cc3ncc(C)c(OC)c3C)nc2c1 [Esomeprazole Magnesium] | 1.32 | 1.34
Cc1cc(N2CCOCC2)cc2[nH]c(-c3c(NC[C@@H](O)c4cccc(Cl)c4)cc[nH]c3=O)nc12 | 0.813 | 0.447
CC(C)NCC(O)c1ccc(O)c(O)c1 (configuration not stated) [Isoprenaline HCl] | 0.972 | 0.988
CS(=O)(=O)N1CCN(Cc2cc3nc(-c4cccc5[nH]ncc45)nc(N4CCOCC4)c3s2)CC1 | 0.824 | 0.658
CC(=O)OCC(=O)[C@@]1(O)[C@H](C)C[C@H]2[C@@H]3CCC4=CC(=O)C=C[C@]4(C)[C@@]3(F)[C@@H](O)C[C@@]21C [Dexamethasone Acetate] | 1.2 | 1.03
COc1c(N2C[C@@H]3CCCN[C@@H]3C2)c(F)cc2c(=O)c(C(=O)O)cn(C3CC3)c12 [Moxifloxacin HCl] | 0.942 | 1.64
CC1(C)CCC[C@]2(C)[C@H]3CC(=O)O[C@]3(C)CC[C@@H]12 [Sclareolide] | 0.805 | 0.945
COc1ccc(C(=O)CC(=O)c2ccc(C(C)(C)C)cc2)cc1 [Avobenzone] | 0.975 | 1.09
CCCC1O[C@@H]2C[C@H]3[C@@H]4CCC5=CC(=O)C=C[C@]5(C)[C@H]4[C@@H](O)C[C@]3(C)[C@]2(C(=O)CO)O1 (some centres not stated) [Budesonide] | 1.28 | 1.2
CNC(=O)[C@@H](c1ccccc1)N1CCc2cc(OC)c(OC)cc2[C@@H]1CCc1ccc(C(F)(F)F)cc1 [Almorexant HCl] | 0.995 | 0.903
COc1cc(C(C)=O)ccc1OCCCN1CCC(c2noc3cc(F)ccc23)CC1 [Iloperidone] | 1.15 | 1.02
COc1ccc(/C=C\c2cc(OC)c(OC)c(OC)c2)cc1O [Combretastatin A4] | 0.313 | 0.292
c1cc(-c2cnn3cc(-c4ccc(N5CCNCC5)cc4)cnc23)c2cccnc2c1 | 0.104 | 0.0761
NCCCC[C@@H]1NC(=O)[C@@H](Cc2ccccc2)NC(=O)[C@H](CC(=O)O)NC(=O)CNC(=O)[C@H](CCCN=C(N)N)NC1=O [Cyclo (-RGDfK)] | 0.833 | 0.865
CC(C(=O)O)c1cccc(C(=O)c2ccccc2)c1 (configuration not stated) [Ketoprofen] | 0.94 | 0.961
CCCCN(Cc1ccc(C(=O)NO)cc1)C(=O)Nc1ccccc1 [Nexturastat A] | 0.793 | 0.525
COC(=O)N[C@H](C(=O)N1CCC[C@H]1c1ncc(-c2ccc(-c3ccc(-c4cnc([C@@H]5CCCN5C(=O)[C@@H](NC(=O)OC)C(C)C)[nH]4)cc3)cc2)[nH]1)C(C)C | 1.14 | 0.892
CC1=C(C(=O)Nc2cc3cn[nH]c3cc2F)C(c2ccc(C(F)(F)F)cc2)CC(=O)N1 (configuration not stated) | 1.09 | 1.16
CNC(=O)c1ccccc1Nc1nc(Nc2ccc(N3CCOCC3)cc2OC)ncc1Cl | 0.987 | 0.532
CCOC(=O)c1ncn2c1CN(C)C(=O)c1cc(F)ccc1-2 [Flumazenil] | 1.08 | 1.22
Cc1cc(C)c2c(c1)[C@@H](N(Cc1cc(C(F)(F)F)cc(C(F)(F)F)c1)c1nnn(C)n1)CCCN2C[C@H]1CC[C@H](C(=O)O)CC1 | 0.997 | 0.93
